Measured values published in patent publication US10299477B2 (priority 2015, dated 2019).

Legend:
Magnaporthe grisea = type: in vivo; settings: 250 ppm spray, preventive; control value class
Phytophthora infestans = type: in vivo; settings: 250 ppm spray (2.5 ml/pot), preventive; 5-10 days after inoculation; control value class
[1] = test system: Colletotrichum orbiculare; settings: 250 ppm spray (2.5 ml/pot), preventive; 6-10 days after inoculation; control value class

SMILES	Test A control value (blast on rice) (Magnaporthe grisea)	Test F control value (late blight on tomato) (Phytophthora infestans)	Test H control value (anthracnose on cucumber) [1]
CCn1c(-c2c(F)cccc2F)c(-c2cc(OCSC)ccc2Cl)ccc1=O [Compound 305]	H (H shows more than 50% of control values)	L (L shows 50% or less of control values)	H (H shows more than 50% of control values)
CSCOc1ccc(Cl)c(-c2ccc(=O)n(C)c2-c2c(F)cccc2F)c1 [Compound 306]	H (H shows more than 50% of control values)	L (L shows 50% or less of control values)	H (H shows more than 50% of control values)
CCOC(=O)COc1ccc(Cl)c(-c2ccc(=O)n(CC)c2-c2c(F)cccc2F)c1 [Compound 307]	L (L shows 50% or less of control values)	L (L shows 50% or less of control values)	L (L shows 50% or less of control values)
CCOC(=O)COc1ccc(Cl)c(-c2ccc(=O)n(C)c2-c2c(F)cccc2F)c1 [Compound 308]	L (L shows 50% or less of control values)	L (L shows 50% or less of control values)	L (L shows 50% or less of control values)
CCn1c(-c2c(F)cccc2F)c(-c2cc(OCS(C)(=O)=O)ccc2Cl)ccc1=O [Compound 309]	L (L shows 50% or less of control values)	L (L shows 50% or less of control values)	H (H shows more than 50% of control values)
CCn1c(-c2c(F)cccc2F)c(-c2cc(OCCCOC)ccc2Cl)ccc1=O [Compound 310]	H (H shows more than 50% of control values)	L (L shows 50% or less of control values)	L (L shows 50% or less of control values)
COCCCOc1ccc(Cl)c(-c2ccc(=O)n(C)c2-c2c(F)cccc2F)c1 [Compound 311]	H (H shows more than 50% of control values)	L (L shows 50% or less of control values)	L (L shows 50% or less of control values)
Cn1c(-c2c(F)cccc2F)c(-c2cc(OCS(C)(=O)=O)ccc2Cl)ccc1=O [Compound 312]	L (L shows 50% or less of control values)	L (L shows 50% or less of control values)	L (L shows 50% or less of control values)
C=CCOc1ccc(Cl)c(-c2ccc(=O)n(CC)c2-c2c(F)cccc2F)c1 [Compound 313]	H (H shows more than 50% of control values)	L (L shows 50% or less of control values)	H (H shows more than 50% of control values)
C=CCOc1ccc(Cl)c(-c2ccc(=O)n(C)c2-c2c(F)cccc2F)c1 [Compound 314]	H (H shows more than 50% of control values)	L (L shows 50% or less of control values)	H (H shows more than 50% of control values)
CCn1c(-c2c(F)cccc2F)c(-c2cc(OCC3OCCO3)ccc2Cl)ccc1=O [Compound 315]	H (H shows more than 50% of control values)	H (H shows more than 50% of control values)	L (L shows 50% or less of control values)
Cn1c(-c2c(F)cccc2F)c(-c2cc(OCC3OCCO3)ccc2Cl)ccc1=O [Compound 316]	H (H shows more than 50% of control values)	L (L shows 50% or less of control values)	L (L shows 50% or less of control values)
CCn1c(-c2c(F)cccc2F)c(-c2cc(OCCC3OCCCO3)ccc2Cl)ccc1=O [Compound 317]	H (H shows more than 50% of control values)	L (L shows 50% or less of control values)	L (L shows 50% or less of control values)
Cn1c(-c2c(F)cccc2F)c(-c2cc(OCCC3OCCCO3)ccc2Cl)ccc1=O [Compound 318]	H (H shows more than 50% of control values)	L (L shows 50% or less of control values)	L (L shows 50% or less of control values)
COc1cc(OC)c(Cl)c(-c2ccc(=O)n(C)c2-c2c(F)cc(OCC(F)(F)F)cc2F)c1 [Compound 319]	H (H shows more than 50% of control values)	H (H shows more than 50% of control values)	H (H shows more than 50% of control values)
CCn1c(-c2c(F)cc(F)cc2F)c(-c2cc(F)ccc2Cl)ccc1=O [Compound 321, 5-(2-chloro-5-fluorophenyl)-1-ethyl-6-(2,4,6-trifluorophenyl)pyridine-2(1H)-one]	H (H shows more than 50% of control values)	H (H shows more than 50% of control values)	H (H shows more than 50% of control values)
CCn1c(-c2c(F)cc(F)cc2F)c(-c2cc(F)ccc2Cl)cc(Cl)c1=O [Compound 322]	H (H shows more than 50% of control values)	L (L shows 50% or less of control values)	H (H shows more than 50% of control values)
CCn1c(-c2c(F)cccc2F)c(-c2cc(OCC3CCCC3)ccc2Cl)ccc1=O [Compound 323]	H (H shows more than 50% of control values)	L (L shows 50% or less of control values)	L (L shows 50% or less of control values)
Cn1c(-c2c(F)cccc2F)c(-c2cc(OCC3CCCC3)ccc2Cl)ccc1=O [Compound 324]	L (L shows 50% or less of control values)	L (L shows 50% or less of control values)	L (L shows 50% or less of control values)
CCOCOc1ccc(Cl)c(-c2ccc(=O)n(CC)c2-c2c(F)cccc2F)c1 [Compound 325]	H (H shows more than 50% of control values)	L (L shows 50% or less of control values)	H (H shows more than 50% of control values)
CCOCOc1ccc(Cl)c(-c2ccc(=O)n(C)c2-c2c(F)cccc2F)c1 [Compound 326]	H (H shows more than 50% of control values)	L (L shows 50% or less of control values)	H (H shows more than 50% of control values)
CCn1c(-c2c(F)cccc2F)c(-c2cccc(Br)c2)ccc1=O [Compound 327]	H (H shows more than 50% of control values)	L (L shows 50% or less of control values)	L (L shows 50% or less of control values)
CCn1c(-c2c(F)cccc2F)c(-c2cccc(Br)c2)cc(Cl)c1=O [Compound 328]	H (H shows more than 50% of control values)	L (L shows 50% or less of control values)	L (L shows 50% or less of control values)
CCn1c(-c2c(F)cccc2F)c(-c2cc(OC)ccc2Cl)cc(C)c1=O [Compound 329, 5-(2-chloro-5-methoxyphenyl)-6-(2,6-difluorophenyl)-1-ethyl-3-methylpyridine-2(1H)-one]	H (H shows more than 50% of control values)	L (L shows 50% or less of control values)	H (H shows more than 50% of control values)
CCn1c(-c2c(F)cccc2F)c(-c2cc(OCOCCOC)ccc2Cl)ccc1=O [Compound 330]	H (H shows more than 50% of control values)	H (H shows more than 50% of control values)	H (H shows more than 50% of control values)
COCCOCOc1ccc(Cl)c(-c2ccc(=O)n(C)c2-c2c(F)cccc2F)c1 [Compound 331]	H (H shows more than 50% of control values)	H (H shows more than 50% of control values)	H (H shows more than 50% of control values)
CCn1c(-c2c(F)cccc2F)c(-c2ccc(Cl)cc2Cl)ccc1=O [Compound 332]	H (H shows more than 50% of control values)	L (L shows 50% or less of control values)	H (H shows more than 50% of control values)
CCn1c(-c2c(F)cccc2F)c(-c2ccc(Cl)cc2Cl)cc(Cl)c1=O [Compound 333]	H (H shows more than 50% of control values)	L (L shows 50% or less of control values)	L (L shows 50% or less of control values)
COc1cc(OC)c(Cl)c(-c2ccc(=O)n(CC(F)(F)F)c2-c2c(F)cccc2F)c1 [Compound 335]	H (H shows more than 50% of control values)	L (L shows 50% or less of control values)	H (H shows more than 50% of control values)
COc1cc(OC)c(Cl)c(C2=C(c3c(F)cccc3F)N(CC(F)F)C(=O)CC2)c1 [Compound 336]	H (H shows more than 50% of control values)	L (L shows 50% or less of control values)	H (H shows more than 50% of control values)
